Source: PubChem BioAssay AID624418 (National Center for Advancing Translational Sciences (NCATS), 2012)
The campaign covered roughly 410,000 compounds. About 530 (0.13%) were called active. Inconclusive means that the source gave no clear call. Such entries were picked first, then a sample of the others. Calls come from the whole dose curve; as a rule, active = well fitted inhibition curve with a large enough effect; inconclusive = small, poorly fitted or top-dose-only effect, or another doubt; inactive = no such curve, though single readings can be large or run the other way. Where the call is inconclusive, the potency comes from a doubtful curve fit.

Assay: qHTS of GLP-1 Receptor Inverse Agonists: Cytotox Screen
Conditions: HEK293 cAMP-luciferase reporter cells, luminescence, 24 h; activity change, negative = inhibition: at 38.3 µM (top of the series) unless noted
Procedure, shortened: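 Seeding density was 200 cells/uL; after overnight-length (12 h) culture, 23 nL compounds went on for 24 h at 37 °C. Readout used a luciferase detection reagent, luminescence taken after 12 min at room temperature.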
% is set by controls: 0 for no effect and ±100 for the full control effect; potency is the fitted concentration of half-maximal effect.

SMILES	activity change, negative = inhibition	Potency
COc1ccc2[nH]c3c(=O)n(Cc4ccc(C(=O)N5CCCC5)cc4)c(=S)[nH]c3c2c1	inactive: 0.225%	
CC(C(=O)O)N1C(=O)/C(=C/C=C/c2ccco2)SC1=S (centres undefined)		inconclusive: 8.91 µM [inhibitor, partial curve]
CCCCn1nnc(NC(=S)NC(=O)c2ccc(-c3cccc(Cl)c3Cl)o2)n1		inconclusive: 10 µM [inhibitor, partial curve]
C/C(=N\Nc1ccccn1)c1ccc(C(C)C)cc1		inconclusive: 15.8 µM [inhibitor, single point]
O=C(COc1ccccc1)n1nc(-c2ccc(Cl)cc2)nc1NCc1ccco1		inconclusive: 10 µM [inhibitor, partial curve, poor fit]
CSCc1cc(N(C)c2ccccc2)nc(-c2ccccn2)n1		inconclusive: 0.501 µM [inhibitor, full curve, poor fit]
O=[N+]([O-])c1ccc2nc(-[n+]3c(-c4ccccc4)cc(-c4ccccc4)cc3-c3ccccc3)[nH]c2c1		inconclusive: 12.6 µM [inhibitor, single point]
N/C(=N\OC(=O)c1ccc2ccccc2c1)c1ccccn1		inconclusive: 11.2 µM [inhibitor, partial curve, poor fit]
Cc1ccc2c(=O)cc(C(=O)Nc3ccc(S(=O)(=O)N4CCC(C)CC4)cc3)oc2c1C	inactive: 2.67%	
COC(=O)c1ccc(C(=O)NC2CCCc3c2cnn3-c2ccc(C)c(C)c2)cc1 (centres undefined)		inconclusive: 1 µM [inhibitor, full curve, poor fit]
CCSc1nsc(NC(=O)Nc2cccc(F)c2)n1		inconclusive: 2.82 µM [inhibitor, partial curve, poor fit]
Cc1oncc1-c1cn2ccccc2n1	inactive: -9.68%	
Cc1nc(-c2ccc(S(=O)(=O)Nc3ccc(C#N)cc3)cc2)co1	inactive: -7.92%	
COc1ccc(OC)c(CN2CCN(CC(=O)Nc3ccccc3C(=O)NC3CC3)CC2)c1		inconclusive: 10 µM [inhibitor, single point]
O=C(N/N=C/c1ccc[nH]1)c1cccc(Br)c1		inconclusive: 31.6 µM [inhibitor, single point]
CN(C)S(=O)(=O)c1ccc(C(=O)OCc2nnc(-c3ccccc3)o2)cc1	inactive: 8.38%	
COc1ccc(Nc2oc(-c3cccs3)nc2C#N)cc1	inactive: 2.14%	
N#C/C(=C\c1c(N2CCCCCC2)nc2ccccn2c1=O)C(=O)NCc1ccco1		inconclusive: 14.1 µM [inhibitor, single point]
c1ccc(-n2cc(CN3CCCC(CN4CCCC4)C3)c(-c3ccc4c(c3)OCO4)n2)cc1 (centres undefined)		inconclusive: 28.2 µM [inhibitor, single point]
COc1cc(NS(=O)(=O)c2cnc(N)nc2)cc(OC)c1	inactive: -4.37%	
C/C(CC(=O)Nc1ccc(Cl)cc1Cl)=N\NC(N)=S		inconclusive: 12.6 µM [inhibitor, partial curve, poor fit]
CC(C)n1cnc2c(N(C)c3ccccc3)nc(N(CCN(C)C)Cc3ccccc3)nc21		inconclusive: 28.2 µM [inhibitor, single point]

SMILES	activity change, negative = inhibition	Potency
CC(C)(C)C(=O)N/C(N)=N/c1nc2ccccc2o1		inconclusive: 5.62 µM [inhibitor, partial curve]
CCN1CCN(C(c2ccc(OC)cc2)c2c(O)cc(C)n(Cc3ccco3)c2=O)CC1 (centres undefined)	inactive: -0.673%	
COc1ccc(NC(=O)CCCCC#Cc2ccccc2)cc1		inconclusive: 0.501 µM [inhibitor, full curve, poor fit]
O=C(/C=C/c1ccc(F)cc1)NC(=S)N1CCN(Cc2ccccc2)CC1		inconclusive: 28.2 µM [inhibitor, single point]
CN(C)/C=C1\SC(=S)N(c2ccc(F)cc2)C1=O		inconclusive: 2.51 µM [inhibitor, full curve]
COC(=O)[C@@]12C[C@@H](CC(=O)NCc3ccc(OC)c(OC)c3)C(=O)N(Cc3ccccc3)C1=CCC(C)(C)C2	inactive: -11.5%	
NC1=NC2(CCC(c3ccccc3)CC2)n2c(nc3ccccc32)N1 (centres undefined)		inconclusive: 10 µM [inhibitor, partial curve, poor fit]
Cc1cc(C)cc(-n2cc[nH]c2=S)c1		inconclusive: 28.2 µM [inhibitor, single point]
O=C(CSc1nnc(CCCN2C(=O)c3cccc4cccc(c34)C2=O)n1-c1ccccc1)N1CCCCC1		inconclusive: 3.55 µM [inhibitor, partial curve, poor fit]
O=C(CN(Cc1ccccc1)S(=O)(=O)c1ccccc1)N/N=C/c1ccc2c(c1)OCO2		inconclusive: 31.6 µM [inhibitor, single point]
O=[N+]([O-])c1c(NCCO)cc(Sc2nc3ccccc3s2)c2nonc12		inconclusive: 28.2 µM [inhibitor, single point]
COc1cc(F)ccc1-c1csc(C(O)(c2ccccc2)C(F)(F)F)n1 (centres undefined)		inconclusive: 14.1 µM [inhibitor, single point]
Cc1nc2c(c(=O)c3ccccc3n2C)c(=O)n1-c1ccccc1		inconclusive: 11.2 µM [inhibitor, partial curve, poor fit]
CCCCn1c(N)c(N(CC(C)C)C(=O)C2CCN(S(=O)(=O)c3ccc(C)c(C)c3)CC2)c(=O)[nH]c1=O		inconclusive: 28.2 µM [inhibitor, single point]
CC(C)Oc1cccc(C(=O)Nc2ncn[nH]2)c1	inactive: -3.94%	
Cc1ccc(-c2nnc(N3CCN(C(=O)COc4ccccc4)CC3)c3ccccc23)cc1		inconclusive: 3.55 µM [inhibitor, partial curve, poor fit]
C/C(=N\NC(=O)C1(C)CC1(Br)Br)c1cccc(NC(=O)C2CCC2)c1 (centres undefined)	inactive: -16.3%	
Oc1cc(OCc2ccccc2)ccc1-c1[nH]ncc1-c1ccccc1		inconclusive: 28.2 µM [inhibitor, single point]
CCC1(CC)Cc2ccccc2-c2[nH]c(=S)[nH]c(=O)c21		inconclusive: 28.2 µM [inhibitor, single point]
CC(=O)Nc1ccc(NC(=O)c2nc(S(=O)(=O)Cc3cccc(C)c3)ncc2Cl)cc1		inconclusive: 2.51 µM [inhibitor, partial curve, poor fit]
Cc1ccc(NC(=O)CSCc2ccco2)cc1	inactive: -15.2%	
CC1CCc2c(sc3nc(C4CC4)nc(N4CCN(C(=O)c5ccco5)CC4)c23)C1 (centres undefined)		inconclusive: 22.4 µM [inhibitor, single point]

SMILES	activity change, negative = inhibition	Potency
CC(C)(C)n1ncc2c(=O)n(CC(=O)NCc3ccccc3)cnc21		inconclusive: 11.2 µM [inhibitor, partial curve, poor fit]
O=[N+]([O-])c1ccc(NN=Cc2cc(Br)ccc2O)nc1		inconclusive: 0.891 µM [inhibitor, full curve]
CC1(C(=O)NCCN2CCOCC2)C=CC2(CCCCC2)N1C(=O)c1ccccc1 (centres undefined)		inconclusive: 8.91 µM [inhibitor, partial curve]
CCOC(=O)COc1c(Cl)cc(C2NC(=S)NC(c3ccccc3)=C2C(C)=O)cc1OC (centres undefined)		inconclusive: 7.94 µM [inhibitor, partial curve]
Cc1cc(NC(=O)CCS(=O)(=O)c2cc(Br)cc3c2N(C(=O)C2CC2)CC3)ccc1Br	inactive: 6.23%	
CCS(=O)(=O)c1ncc(Cl)c(C(=O)Nc2ccc(C)cc2)n1		inconclusive: 11.2 µM [inhibitor, single point]
CCOc1cc(/C=N/NC(=O)c2ccccc2-n2cccc2)ccc1O		inconclusive: 14.1 µM [inhibitor, single point]
Cc1ccc(C)c(CNC(=O)c2ccc3c(c2)nc2n3CCCCC2)c1	inactive: -19.8%	
Cc1ccc(C)c(CN2CCC(CNC(=O)Nc3ccc(Br)cc3F)CC2)c1		inconclusive: 10 µM [inhibitor, partial curve]
Cn1c(=O)c2[nH]c(CCCCCCCCc3nc4ccccc4[nH]3)nc2n(C)c1=O		inconclusive: 15.8 µM [inhibitor, single point]
CC1CCN(c2ccc([N+](=O)[O-])cc2C(=O)O)CC1		inconclusive: 10 µM [inhibitor, single point]
COc1cc(OC)cc(C(=O)Oc2c(CN3CCOCC3)cc(Cl)c3cccnc23)c1		inconclusive: 2.24 µM [inhibitor, partial curve, poor fit]
C[C@H](CO)N1C[C@H](C)[C@@H](CN(C)S(=O)(=O)c2cccs2)Oc2ccc(NC(=O)Nc3ccc(C(F)(F)F)cc3)cc2C1=O		inconclusive: 11.2 µM [inhibitor, partial curve, poor fit]
Cc1nc2ccc(S(=O)(=O)CCC(=O)Nc3ccc(C)c(C)c3)cc2s1	inactive: 1.49%	
CCOc1cc(/C=C2\COc3ccccc3C2=O)cc(Br)c1OCC(=O)N(C)C		inconclusive: 11.2 µM [inhibitor, single point]
CCOc1ccc(Nc2ncnc3c2cnn3Cc2ccccc2)cc1		inconclusive: 15.8 µM [inhibitor, single point]
Cc1nn(C)c(=S)[nH]c1=S		inconclusive: 12.6 µM [inhibitor, partial curve, poor fit]
NS(=O)(=O)c1ccc(CNS(=O)(=O)c2cccc3nonc23)cc1		inconclusive: 12.6 µM [inhibitor, single point]
CCOc1ccc2nc(SC3CC(=O)N(c4ccc(OC)cc4)C3=O)sc2c1 (centres undefined)		inconclusive: 11.2 µM [inhibitor, partial curve]
Cc1cccc2sc(N(CCCN(C)C)C(=O)c3ccc(Cl)s3)nc12		inconclusive: 31.6 µM [inhibitor, partial curve, poor fit]
